In the supplement of paper PMC12423691 one finds AlphaScreen luminescence signal data, which are given here for ten molecules.

The list shows a part of the results. Binding of human transcription factors and regulators to the viral nucleoprotein by AlphaScreen, crude cell-free proteins, amounts not normalised, one pass. Fold of the Venus control; higher = more signal. No active / inactive call. Single-pass screen; sequences are the whole Swiss-Prot entries looked up by name.

The labels stand for the following.
B1: CBFB, Q13951 (protein)
chain: MPRVVPDQRSKFENEEFFRKLSRECEIKYTGFRDRPHEERQARFQNACRDGRSEIAFVATGTNLSLQFFPASWQGEQRQTPSREYVDLEREAGKVYLKAPMILNGVCVIWKGWIDLQRLDGMGCLEFDEERAQQEDALAQQAFEEARRRTREFEDRDRSHREEMEVRVSQLLAVTGKKTTRP
B2: FOSB, P53539 (protein)
chain: MFQAFPGDYDSGSRCSSSPSAESQYLSSVDSFGSPPTAAASQECAGLGEMPGSFVPTVTAITTSQDLQWLVQPTLISSMAQSQGQPLASQPPVVDPYDMPGTSYSTPGMSGYSSGGASGSGGPSTSGTTSGPGPARPARARPRRPREETLTPEEEEKRRVRRERNKLAAAKCRNRRRELTDRLQAETDQLEEEKAELESEIAELQKEKERLEFVLVAHKPGCKIPYEEGPGPGPLAEVRDLPGSAPAKEDGFSWLLPPPPPPPLPFQTSQDAPPNLTASLFTHSEVQVLGDPFPVVNPSYTSSFVLTCPEVSAFAGAQRTSGSDQPSDPLNSPSLLAL
B3: JDP2, Q8WYK2 (protein)
chain: MMPGQIPDPSVTTGSLPGLGPLTGLPSSALTVEELKYADIRNLGAMIAPLHFLEVKLGKRPQPVKSELDEEEERRKRRREKNKVAAARCRNKKKERTEFLQRESERLELMNAELKTQIEELKQERQQLILMLNRHRPTCIVRTDSVKTPESEGNPLLEQLEKK
B4: STAT6, P42226 (protein)
chain: MSLWGLVSKMPPEKVQRLYVDFPQHLRHLLGDWLESQPWEFLVGSDAFCCNLASALLSDTVQHLQASVGEQGEGSTILQHISTLESIYQRDPLKLVATFRQILQGEKKAVMEQFRHLPMPFHWKQEELKFKTGLRRLQHRVGEIHLLREALQKGAEAGQVSLHSLIETPANGTGPSEALAMLLQETTGELEAAKALVLKRIQIWKRQQQLAGNGAPFEESLAPLQERCESLVDIYSQLQQEVGAAGGELEPKTRASLTGRLDEVLRTLVTSCFLVEKQPPQVLKTQTKFQAGVRFLLGLRFLGAPAKPPLVRADMVTEKQARELSVPQGPGAGAESTGEIINNTVPLENSIPGNCCSALFKNLLLKKIKRCERKGTESVTEEKCAVLFSASFTLGPGKLPIQLQALSLPLVVIVHGNQDNNAKATILWDNAFSEMDRVPFVVAERVPWEKMCETLNLKFMAEVGTNRGLLPEHFLFLAQKIFNDNSLSMEAFQHRSVSWSQFNKEILLGRGFTFWQWFDGVLDLTKRCLRSYWSDRLIIGFISKQYVTSLLLNEPDGTFLLRFSDSEIGGITIAHVIRGQDGSPQIENIQPFSAKDLSIRSLGDRIRDLAQLKNLYPKKPKDEAFRSHYKPEQMGKDGRGYVPATIKMTVERDQPLPTPELQMPTMVPSYDLGMAPDSSMSMQLGPDMVPQVYPPHSHSIPPYQGLSPEESVNVLSAFQEPHLQMPPSLGQMSLPFDQPHPQGLLPCQPQEHAVSSPDPLLCSDVTMVEDSCLSQPVTAFPQGTWIGEDIFPPLLPPTEQDLTKLLLEGQGESGGGSLGAQPLLQPSHYGQSGISMSHMDLRANPSW
B5: ELK1, P19419 (protein)
chain: MDPSVTLWQFLLQLLREQGNGHIISWTSRDGGEFKLVDAEEVARLWGLRKNKTNMNYDKLSRALRYYYDKNIIRKVSGQKFVYKFVSYPEVAGCSTEDCPPQPEVSVTSTMPNVAPAAIHAAPGDTVSGKPGTPKGAGMAGPGGLARSSRNEYMRSGLYSTFTIQSLQPQPPPHPRPAVVLPSAAPAGAAAPPSGSRSTSPSPLEACLEAEEAGLPLQVILTPPEAPNLKSEELNVEPGLGRALPPEVKVEGPKEELEVAGERGFVPETTKAEPEVPPQEGVPARLPAVVMDTAGQAGGHAASSPEISQPQKGRKPRDLELPLSPSLLGGPGPERTPGSGSGSGLQAPGPALTPSLLPTHTLTPVLLTPSSLPPSIHFWSTLSPIAPRSPAKLSFQFPSSGSAQVHIPSISVDGLSTPVVLSPGPQKP
B6: PRKD2, Q9BZL6 (protein)
chain: MATAPSYPAGLPGSPGPGSPPPPGGLELQSPPPLLPQIPAPGSGVSFHIQIGLTREFVLLPAASELAHVKQLACSIVDQKFPECGFYGLYDKILLFKHDPTSANLLQLVRSSGDIQEGDLVEVVLSASATFEDFQIRPHALTVHSYRAPAFCDHCGEMLFGLVRQGLKCDGCGLNYHKRCAFSIPNNCSGARKRRLSSTSLASGHSVRLGTSESLPCTAEELSRSTTELLPRRPPSSSSSSSASSYTGRPIELDKMLLSKVKVPHTFLIHSYTRPTVCQACKKLLKGLFRQGLQCKDCKFNCHKRCATRVPNDCLGEALINGDVPMEEATDFSEADKSALMDESEDSGVIPGSHSENALHASEEEEGEGGKAQSSLGYIPLMRVVQSVRHTTRKSSTTLREGWVVHYSNKDTLRKRHYWRLDCKCITLFQNNTTNRYYKEIPLSEILTVESAQNFSLVPPGTNPHCFEIVTANATYFVGEMPGGTPGGPSGQGAEAARGWETAIRQALMPVILQDAPSAPGHAPHRQASLSISVSNSQIQENVDIATVYQIFPDEVLGSGQFGVVYGGKHRKTGRDVAVKVIDKLRFPTKQESQLRNEVAILQSLRHPGIVNLECMFETPEKVFVVMEKLHGDMLEMILSSEKGRLPERLTKFLITQILVALRHLHFKNIVHCDLKPENVLLASADPFPQVKLCDFGFARIIGEKSFRRSVVGTPAYLAPEVLLNQGYNRSLDMWSVGVIMYVSLSGTFPFNEDEDINDQIQNAAFMYPASPWSHISAGAIDLINNLLQVKMRKRYSVDKSLSHPWLQEYQTWLDLRELEGKMGERYITHESDDARWEQFAAEHPLPGSGLPTDRDLGGACPPQDHDMQGLAERISVL
B7: HOMEZ, Q8IX15 (protein)
chain: MVRGWEPPPGLDCAISEGHKSEGTMPPNKEASGLSSSPAGLICLPPISEELQLVWTQAAQTSELDSNEHLLKTFSYFPYPSLADIALLCLRYGLQMEKVKTWFMAQRLRCGISWSSEEIEETRARVVYRRDQLHFKSLLSFTHHAGRPPEEVPPPPVPAPEQVGIGIGPPTLSKPTQTKGLKVEPEEPSQMPPLPQSHQKLKESLMTPGSGAFPYQSDFWQHLQSSGLSKEQAGRGPNQSHGIGTASWNHSTTVPQPQARDKPPPIALIASSCKEESASSVTPSSSSTSSSFQVLANGATAASKPLQPLGCVPQSVSPSEQALPPHLEPAWPQGLRHNSVPGRVGPTEYLSPDMQRQRKTKRKTKEQLAILKSFFLQCQWARREDYQKLEQITGLPRPEIIQWFGDTRYALKHGQLKWFRDNAVPGAPSFQDPAIPTPPPSTRSLNERAETPPLPIPPPPPDIQPLERYWAAHQQLRETDIPQLSQASRLSTQQVLDWFDSRLPQPAEVVVCLDEEEEEEEEELPEDDEEEEEEEEEDDDDDDDDVIIQD
B8: GAS7, O60861 (protein)
chain: MSGARCRTLYPFSGERHGQGLRFAAGELITLLQVPDGGWWEGEKEDGLRGWFPASYVQLLEKPGMVPPPPGEESQTVILPPGWQSYLSPQGRRYYVNTTTNETTWERPSSSPGIPASPGSHRSSLPPTVNGYHASGTPAHPPETAHMSVRKSTGDSQNLGSSSPSKKQSKENTITINCVTFPHPDTMPEQQLLKPTEWSYCDYFWADKKDPQGNGTVAGFELLLQKQLKGKQMQKEMSEFIRERIKIEEDYAKNLAKLSQNSLASQEEGSLGEAWAQVKKSLADEAEVHLKFSAKLHSEVEKPLMNFRENFKKDMKKCDHHIADLRKQLASRYASVEKARKALTERQRDLEMKTQQLEIKLSNKTEEDIKKARRKSTQAGDDLMRCVDLYNQAQSKWFEEMVTTTLELERLEVERVEMIRQHLCQYTQLRHETDMFNQSTVEPVDQLLRKVDPAKDRELWVREHKTGNIRPVDMEI
B9: ETV7, Q9Y603 (protein)
chain: MQEGELAISPISPVAAMPPLGTHVQARCEAQINLLGEGGICKLPGRLRIQPALWSREDVLHWLRWAEQEYSLPCTAEHGFEMNGRALCILTKDDFRHRAPSSGDVLYELLQYIKTQRRALVCGPFFGGIFRLKTPTQHSPVPPEEVTGPSQMDTRRGHLLQPPDPGLTSNFGHLDDPGLARWTPGKEESLNLCHCAELGCRTQGVCSFPAMPQAPIDGRIADCRLLWDYVYQLLLDTRYEPYIKWEDKDAKIFRVVDPNGLARLWGNHKNRVNMTYEKMSRALRHYYKLNIIKKEPGQKLLFRFLKTPGKMVQDKHSHLEPLESQEQDRIEFKDKRPEISP
B10: ZSCAN5A, Q9BUG6 (protein)
chain: MAANCTSSWSLGESCNRPGLELPRSMASSETQLGNHDVDPEISHVNFRMFSCPKESDPIQALRKLTELCHLWLRPDLHTKEQILDMLVMEQFMISMPQELQVLVMMNGVQSCKDLEDLLRNNRRPKKWSVVTFHGKEYIVQDSDIEMAEAPSSVRDDLKDVSSQRASSVNQMRPGEGQAHRELQILPRVPALSRRQGEDFLLHKSIDVTGDPKSLRPKQTLEKDLKENREENPGLTSPEPQLPKSPTDLVRAKEGKDPPKIASVENVDADTPSACVVEREASTHSGNRGDALNLSSPKRSKPDASSISQEEPQGEATPVGNRESPGQAGMNSIHSPGPASPVSHPDGQEAKALPPFACDVCEKRFTCNSKLVIHKRSHTGERLFQCNLCGKRFMQLISLQFHQRTHTGERPYTCDVCQKQFTQKSYLKCHKRSHTGEKPFECKDCKKVFTYRGSLKEHQRIHSGEKPYKCSKCPRAFSRLKLLRRHQKTHPEATSQ

For the test, the target named is nucleoprotein N of Crimean-Congo hemorrhagic fever virus. Kind of test: AlphaScreen luminescence signal relative to Venus negative control (fold); higher = stronger binding to CCHFV N. The procedure: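 AlphaScreen binding of cell-free made, FLAG-GST-tagged human transcription factors and regulators (crude translation products) to biotinylated N protein; signal as fold of the FLAG-GST-Venus control. One pass.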
A general note: Alpha assays give light when donor and acceptor beads are brought close together.
The molecule B1 showed an AlphaScreen luminescence signal of 1.95.

B2 had an AlphaScreen luminescence signal of 1.3.

B3 came in with an AlphaScreen luminescence signal of 2.23.

For B4, the AlphaScreen luminescence signal was 2.33.

The molecule B5 displayed an AlphaScreen luminescence signal of 2.47.

The molecule B6 gave an AlphaScreen luminescence signal of 1.16.

Regarding B7, the AlphaScreen luminescence signal was 2.05.

As to B8, the AlphaScreen luminescence signal came to 2.65.

Molecule B9 gave an AlphaScreen luminescence signal of 3.3.

As to B10, the AlphaScreen luminescence signal was 5.49.
